# The whole screen tested about 410,000 compounds, of which about 5,000 (1.2%) were called active. The inconclusive results got no clear call from the source; some entries with a clear call stand among them for comparison. Calls follow the shape of the dose curve; as a rule, active = well fitted inhibition curve with a large enough effect; inconclusive = small, poorly fitted or top-dose-only effect; inactive = no such curve, though single readings can be large or run the other way. Potencies of inconclusive entries are doubtful fits and often do not repeat.
# Test: qHTS for Inhibitors of TGF-b; also: nearly all actives have a fitted effect of over 65% in size
# Settings: HepG2 CAGA-GFP TGF-b/SMAD3 reporter, GFP fluorescence, 18 h, TGF-beta stimulated, 500 pg/mL final; series mostly up to 46.1 µM; activity, negative = inhibition: at the top concentration
# Summary of the method: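 Inhibition of TGF-beta-driven CAGA-GFP reporter expression in HEPG2 cells is measured by cellular GFP fluorescence after 18 h stimulation with 500 pg/mL recombinant TGF-beta in 1% FBS medium at 37 degrees C.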
# % is scaled to controls: 0 for no effect and ±100 for the full control effect; potency is read from the fitted curve at half-maximal effect; tags tell the direction and shape of the fitted curve.
SMILES,Potency,"activity, negative = inhibition"
COCCN(C(=S)Nc1ccccc1OC)C1CCN(C(C)=O)CC1,"inconclusive: 3.55 µM [inhibitor, single point]",
CC(CNS(=O)(=O)c1cc(Cl)ccc1Cl)CN(C)C (stereo not drawn),"inconclusive: 0.112 µM [inhibitor, full curve, poor fit]",
O=C(OCC(O)C(O)C(O)C(SCc1ccccc1)SCc1ccccc1)c1ccccc1 (stereo not drawn),"inconclusive: 35.5 µM [inhibitor, single point]",
COc1ccc(Br)cc1CN(C)CC(=O)Nc1c(Cl)cccc1Cl,"inconclusive: 35.5 µM [inhibitor, single point]",
CN(C)c1ccc(C(CNC(=O)c2ccco2)N2CCCC2)cc1 (stereo not drawn),"inconclusive: 31.6 µM [inhibitor, single point]",
CC1Cc2cc(S(=O)(=O)N3CCCC(C(=O)N4CCCCC4)C3)ccc2N1C(=O)C1CC1 (stereo not drawn),,inactive: -19.8%
CCC1CCCCN1CCCNC(=O)C1CCN(Cc2nc(-c3ccc(Cl)cc3)oc2C)CC1 (stereo not drawn),"inconclusive: 25.1 µM [inhibitor, single point]",
CCCOP(=O)(c1ccc(N(C)C)cc1)C(Nc1ccccc1)c1ccc(N(C)C)cc1 (stereo not drawn),"inconclusive: 14.1 µM [inhibitor, single point]",
COc1cccc(CNc2nc3cc(-c4ccccc4)sc3c(=O)n2C)c1OC,"inconclusive: 12.6 µM [inhibitor, partial curve, poor fit]",
COc1ccc(N(CC(=O)NCCSc2ccc(C)cc2)S(=O)(=O)c2ccccc2)c(OC)c1,,inactive: 5.9%
CC(C)CCn1cnc2c(sc3nc4c(cc32)CSC(C)(C)C4)c1=O,"inconclusive: 6.31 µM [inhibitor, single point]",
O=C1c2cccc(-c3ccc(C(F)(F)F)cc3)c2C2CC=CCN12 (stereo not drawn),"inconclusive: 12.6 µM [inhibitor, partial curve]",
C[C@H](N)c1nnc(SCC(=O)c2ccc(Cl)cc2)o1,,inactive: 2.62%
FC(F)(F)c1cccc(N2CCN(C(=S)NCC3CCCO3)CC2)c1 (stereo not drawn),"inconclusive: 35.5 µM [inhibitor, single point]",
CN1/C(=C/C(=O)c2nc(S(C)(=O)=O)ncc2Cl)C(C)(C)c2ccccc21,"inconclusive: 15.8 µM [inhibitor, partial curve, poor fit]",
COc1ccc(C2c3ccc4ccccc4c3Oc3ncn(CCN4CCOCC4)c(=N)c32)cc1OC (stereo not drawn),"inconclusive: 35.5 µM [inhibitor, single point]",
CCOC(=O)C(Cc1ccc(OC)c([N+](=O)[O-])c1)NC(=O)CCC(=O)Nc1ccc(C)cc1 (stereo not drawn),,inactive: -18.9%
CCc1ccc(C(=O)c2cn(CC(=O)Nc3ccc(C)c(C)c3)c3ccccc3c2=O)cc1,"inconclusive: 7.94 µM [inhibitor, partial curve, poor fit]",
Cc1c(Cl)cccc1NC(=O)Cn1cnc2nc3c(cc2c1=O)CCCC3,,inactive: 11%
Cc1cc(C)n2nc(SC(C)C(=O)NC3CCCCC3C)nc2n1 (stereo not drawn),"inconclusive: 6.31 µM [inhibitor, single point]",
S=C(NCC1COc2ccccc2O1)Nc1ccc(Br)cc1 (stereo not drawn),active: 22.4 µM,
Cc1cccc(N2C(=O)CC(Sc3nnc(C)s3)C2=O)c1 (stereo not drawn),"inconclusive: 15.8 µM [inhibitor, single point]",
CCc1nc2ccc(C(=O)NCC3CCCCC3)cn2c1N(CCC(C)C)CCN(C)C,"inconclusive: 35.5 µM [inhibitor, single point]",

SMILES,Potency,"activity, negative = inhibition"
CC(=O)c1ccc(-n2nnnc2SCC(=O)Nc2cccc(NC(=O)c3ccco3)c2)cc1,,inactive: -2.82%
Cc1ccc(CN2CCc3nc(N4CCN(C)CC4)ncc3C2)s1,,inactive: 0.103%
CCC(C(=O)NCCCN(CC)Cc1ccccc1)n1nc(C)c2sc3ccccc3c2c1=O (stereo not drawn),"inconclusive: 3.16 µM [inhibitor, single point]",
O=C(c1cc(-c2cccc(O)c2)on1)N1CCCCC1,"inconclusive: 0.447 µM [inhibitor, full curve, poor fit]",
Cc1ccc2cc3cc(C(=O)NCCCN4CC(C)CC(C)C4)oc3nc2c1 (stereo not drawn),"inconclusive: 6.31 µM [inhibitor, single point]",
CCOc1ccc(-n2c(SCC(=O)Nc3ccc(F)cc3)nc3c([nH]c4ccccc43)c2=O)cc1,,inactive: -2.31%
Cn1c(SCc2cccc([N+](=O)[O-])c2)nc2ccccc2c1=O,"inconclusive: 35.5 µM [inhibitor, single point]",
Cc1cc(N=Cc2c(O)n(-c3cccc(C(F)(F)F)c3)c(=O)c3ccccc23)no1,,inactive: 0.586%
Cc1ccccc1NCC(=O)N/N=C\c1ccc([N+](=O)[O-])s1,active: 11.2 µM,
CC(C)(C)c1cc(CN2CCCC(O)C2)c(O)c(C(C)(C)C)c1 (stereo not drawn),"inconclusive: 35.5 µM [inhibitor, single point]",
O=C(Nc1ccccn1)c1ccc(S(=O)(=O)c2ccc(Cl)cc2)cc1,"inconclusive: 25.1 µM [inhibitor, single point]",
CCOc1ccccc1CNC(=O)c1ccc2c(c1)sc1nc(-c3cccc(OC)c3)cn12,,inactive: -1.4%
CCCNC(=O)C1(C)CCCN(CCOc2ccccc2)C1 (stereo not drawn),,inactive: 4.76%
CCC1=C(c2ccc(C)cc2)S(=O)(=O)N=C1N1CCC(C(=O)NCCCN2CCCCC2)CC1,,inactive: -0.432%
COc1ccccc1N(C)S(=O)(=O)c1ccc(Cl)c(C(=O)Nc2cccc(C)n2)c1,,inactive: -8.42%
CCOc1ccc(NC(=O)CN(C)C(=O)Cc2c[nH]c3ccccc23)cc1OCC,,inactive: 2.62%
O=C(NCc1nnnn1-c1ccc(F)cc1)c1ccc([N+](=O)[O-])o1,active: 14.1 µM,
O=C(N/N=C/c1cc(Br)ccc1O)Nc1ccccc1,"inconclusive: 14.1 µM [inhibitor, partial curve]",
c1ccc(Cn2ccc(-c3cnc(-c4ccccc4)s3)n2)cc1,"inconclusive: 22.4 µM [inhibitor, single point]",
COc1ccc2cc(-c3cc(C(=O)OCC(=O)NC4CCS(=O)(=O)C4)c4ccccc4n3)ccc2c1 (stereo not drawn),"inconclusive: 6.31 µM [inhibitor, single point]",
CCn1nc(C(=O)NCC(c2cccs2)N2CCOCC2)c2ccccc2c1=O (stereo not drawn),,inactive: -14.9%
CC(c1ccccc1)c1nnc(NC(=O)Nc2ccccc2)s1 (stereo not drawn),"inconclusive: 31.6 µM [inhibitor, single point]",
CCc1cccc(NC(=O)CSc2ncccc2C(=O)Oc2ccccc2Cl)c1,"inconclusive: 35.5 µM [inhibitor, single point]",

SMILES,Potency,"activity, negative = inhibition"
NC(=O)c1nn(-c2ccccc2)nc1NC(=O)CN1CCOCC1,,inactive: -0.796%
Cc1cc(C)cc(OCc2ccc(C(=O)Nc3ccccc3F)o2)c1,,inactive: -0.342%
COc1ccc(CNC(=O)CCC(=O)N2CC3CCCN3c3ccccc32)c(OC)c1 (stereo not drawn),"inconclusive: 35.5 µM [inhibitor, single point]",
O=c1[nH]c(C2CCCN(S(=O)(=O)c3cccc(Cl)c3)C2)nc2c1nnn2Cc1ccc2c(c1)OCCO2 (stereo not drawn),"inconclusive: 35.5 µM [inhibitor, single point]",
O=C(NNC(=O)[C@@H]1CCCC[C@@H]1C(=O)O)Nc1ccccc1,"inconclusive: 35.5 µM [inhibitor, single point]",
COc1ccc(-c2cc(NC=O)c3ncc(-c4ccc(OC)c(OC)c4)n3c2)cc1,"inconclusive: 17.8 µM [inhibitor, single point]",
CCc1nn(CC(=O)N2CCN(c3ccc(F)cc3)CC2)c(=O)c2cc3occc3n12,,inactive: 0.122%
CC(=O)Nc1cc(-c2cccc(NS(C)(=O)=O)c2)cn2c(-c3cccc(C(F)(F)F)c3)cnc12,"inconclusive: 35.5 µM [inhibitor, single point]",
O=C(c1ccc(CS(=O)Cc2ccccc2Cl)o1)N1CCN(c2cccc(Cl)c2)CC1 (stereo not drawn),"inconclusive: 14.1 µM [inhibitor, single point]",
COc1ccc2[nH]c(=O)c(CN(Cc3ccc(C)cc3)Cc3nnnn3CC3CCCO3)cc2c1 (stereo not drawn),,inactive: 10%
COc1ccc(N(Cc2ccco2)C(=O)c2ccccc2F)cc1OC,,inactive: 5.26%
CC1(Cc2c(Cl)cccc2Cl)C(=O)Nc2cc(-c3ccccc3Cl)ccc21 (stereo not drawn),"inconclusive: 25.1 µM [inhibitor, single point]",
Cc1ccc(NC(=O)CCC(=O)N2CCC(c3ccccc3)=N2)cc1S(=O)(=O)N1CCCCC1,"inconclusive: 28.2 µM [inhibitor, single point]",
CN(Cc1ccncn1)C(=O)C1CCC(=O)N(Cc2cccc(C(F)(F)F)c2)C1 (stereo not drawn),,inactive: 15.7%
COc1ccc(C)cc1NC(=O)c1ccc2c(c1)CCN2S(=O)(=O)c1ccc(Cl)cc1,"inconclusive: 15.8 µM [inhibitor, single point]",
Cc1ccc(C)c(CN2CCC(CNC(=O)c3cc4ccc5cccnc5c4[nH]3)CC2)c1,"inconclusive: 35.5 µM [inhibitor, single point]",
COc1ccc(CNc2nc3c(c(=O)n(C)c(=O)n3C)n2Cc2ccccc2Cl)cc1,,inactive: 0%
COc1ccc(CC(=O)NNC(=O)c2ccc(SCc3cc(F)ccc3F)c([N+](=O)[O-])c2)cc1,"inconclusive: 25.1 µM [inhibitor, single point]",
COc1ccccc1OCCCOc1cccc(/C=C2\SC(=O)NC2=O)c1,,inactive: -13.2%
O=[N+]([O-])c1cc(Br)c(O)c(/C=N/Nc2nc3ccccc3s2)c1,"inconclusive: 3.55 µM [inhibitor, partial curve, poor fit]",
COc1cccc(C2C(C(=O)Nc3ccccc3)=C(C)Nc3nc(-c4ccccc4)nn32)c1OC (stereo not drawn),"inconclusive: 3.16 µM [inhibitor, full curve, poor fit]",
CSc1ccccc1NC(=O)CN(C)C(=O)Cc1c[nH]c2ccccc12,"inconclusive: 2.51 µM [inhibitor, single point]",

# Source: PubChem BioAssay AID588855 (National Center for Advancing Translational Sciences (NCATS), 2011)
